Here are results for 4 variants from the GPR68 mutational scans of Howard et al. (2025).

The chains are these.
B1: GPR68, Q15743 (parent)
chain: MGNITADNSSMSCTIDHTIHQTLAPVVYVTVLVVGFPANCLSLYFGYLQIKARNELGVYLCNLTVADLFYICSLPFWLQYVLQHDNWSHGDLSCQVCGILLYENIYISVGFLCCISVDRYLAVAHPFRFHQFRTLKAAVGVSVVIWAKELLTSIYFLMHEEVIEDENQHRVCFEHYPIQAWQRAINYYRFLVGFLFPICLLLASYQGILRAVRRSHGTQKSRKDQIQRLVLSTVVIFLACFLPYHVLLLVRSVWEASCDFAKGVFNAYHFSLLLTSFNCVADPVLYCFVSETTHRDLARLRGACLAFLTCSRTGRAREAYPLGAPEASGKSGAQGEEPELLTKLHPAFQTPNSPGSGGFPTGRLA

The variants in data set [1] derive from B1. The data set can be described thus: cAMP reporter score (Enrich2 score, wild type = 0); higher = more signal; HEK293T, FACS bins.
Variants of B1 are the subject of data set [2]. Nature of the data set: surface expression score (Enrich2 score, wild type = 0); higher = more signal; HEK293T, FACS bins.

Scores whose standard error is large were omitted. Not listed are two conditions whose scores span a narrow range. In variant names, del marks residues removed and ins residues inserted between the two positions. For part of these data: The concentration of ogerin is not given here.

Take MGNITADNSSMSCTIDHTIHQTLAPVVYVTVLVVGFPANCLSLYFGYLQIKKRNELGVYLCNLTVADLFYICSLPFWLQYVLQHDNWSHGDLSCQVCGILLYENIYISVGFLCCISVDRYLAVAHPFRFHQFRTLKAAVGVSVVIWAKELLTSIYFLMHEEVIEDENQHRVCFEHYPIQAWQRAINYYRFLVGFLFPICLLLASYQGILRAVRRSHGTQKSRKDQIQRLVLSTVVIFLACFLPYHVLLLVRSVWEASCDFAKGVFNAYHFSLLLTSFNCVADPVLYCFVSETTHRDLARLRGACLAFLTCSRTGRAREAYPLGAPEASGKSGAQGEEPELLTKLHPAFQTPNSPGSGGFPTGRLA [A52K]: the cAMP reporter score in data set [1] (pH 5.5) was determined as 0.879; in data set [1] (pH 6), 2.13; in data set [1] (pH 6, modulator: ogerin) it was 1.24; in data set [1] (pH 6.5, modulator: ogerin), 1.94. The surface expression score in data set [2] came out at 1.38.
As to MGNITADNSSMSCTIDHTIHQTLAPVVYVTVLVVGFPANCLSLYFGYLQIKLRNELGVYLCNLTVADLFYICSLPFWLQYVLQHDNWSHGDLSCQVCGILLYENIYISVGFLCCISVDRYLAVAHPFRFHQFRTLKAAVGVSVVIWAKELLTSIYFLMHEEVIEDENQHRVCFEHYPIQAWQRAINYYRFLVGFLFPICLLLASYQGILRAVRRSHGTQKSRKDQIQRLVLSTVVIFLACFLPYHVLLLVRSVWEASCDFAKGVFNAYHFSLLLTSFNCVADPVLYCFVSETTHRDLARLRGACLAFLTCSRTGRAREAYPLGAPEASGKSGAQGEEPELLTKLHPAFQTPNSPGSGGFPTGRLA [A52L], the cAMP reporter score in data set [1] (pH 5.5) is -0.197; in data set [1] (pH 6), -0.733; in data set [1] (pH 6, modulator: ogerin) it was -0.376; in data set [1] (pH 6.5, modulator: ogerin), 0.191. In addition, the surface expression score in data set [2] is -0.977.
As for MGNITADNSSMSCTIDHTIHQTLAPVVYVTVLVVGFPANCLSLYFGYLQIKMRNELGVYLCNLTVADLFYICSLPFWLQYVLQHDNWSHGDLSCQVCGILLYENIYISVGFLCCISVDRYLAVAHPFRFHQFRTLKAAVGVSVVIWAKELLTSIYFLMHEEVIEDENQHRVCFEHYPIQAWQRAINYYRFLVGFLFPICLLLASYQGILRAVRRSHGTQKSRKDQIQRLVLSTVVIFLACFLPYHVLLLVRSVWEASCDFAKGVFNAYHFSLLLTSFNCVADPVLYCFVSETTHRDLARLRGACLAFLTCSRTGRAREAYPLGAPEASGKSGAQGEEPELLTKLHPAFQTPNSPGSGGFPTGRLA [A52M], the cAMP reporter score in data set [1] (pH 5.5) was 0.102; in data set [1] (pH 6), 0.301; in data set [1] (pH 6, modulator: ogerin) it was -0.534; in data set [1] (pH 6.5, modulator: ogerin), -0.998. In addition, the surface expression score in data set [2] was -0.621.
On to MGNITADNSSMSCTIDHTIHQTLAPVVYVTVLVVGFPANCLSLYFGYLQIKIRNELGVYLCNLTVADLFYICSLPFWLQYVLQHDNWSHGDLSCQVCGILLYENIYISVGFLCCISVDRYLAVAHPFRFHQFRTLKAAVGVSVVIWAKELLTSIYFLMHEEVIEDENQHRVCFEHYPIQAWQRAINYYRFLVGFLFPICLLLASYQGILRAVRRSHGTQKSRKDQIQRLVLSTVVIFLACFLPYHVLLLVRSVWEASCDFAKGVFNAYHFSLLLTSFNCVADPVLYCFVSETTHRDLARLRGACLAFLTCSRTGRAREAYPLGAPEASGKSGAQGEEPELLTKLHPAFQTPNSPGSGGFPTGRLA [A52I], for which the cAMP reporter score in data set [1] (pH 5.5) was -0.28; in data set [1] (pH 6, modulator: ogerin), 0.338. Besides, the surface expression score in data set [2] is -2.54.
